Assay results reported in the supplement of paper PMC7826260.
Some of the results follow. Viral Rep nickase domains cut single-stranded DNA in vitro for 1 h at 37 °C with 3 µM enzyme; only the middle of the 90-letter strands is printed. The score is log2 (uncut reads / reads without enzyme); more negative means more cut, near 0 not cut, and no call is made. Shares of all reads are compared, so uncut sequences can rise above 0 when many others are cut.

How the values were obtained:
Experiment in all cases: uncleaved DNA left, log2 of reads against the no-enzyme library (log2 ratio); higher = less cleavage (more negative = more Rep cleavage of the k-mer); sequences stand for … in CTCGTCCG…ACCGGAGA
[1] = test system: T1, Rep nickase domain of Muscovy duck circovirus
T1 sequence (Rep 1-111, printed without the tag): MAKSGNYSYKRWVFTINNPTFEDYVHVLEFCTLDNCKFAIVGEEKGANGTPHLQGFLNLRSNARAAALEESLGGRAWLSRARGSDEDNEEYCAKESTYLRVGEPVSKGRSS
Method: (§1)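 A pool of 90-nt single-stranded DNAs with seven random bases just before the constant AC of the nick site (name = the seven bases) was cut by 3 µM recombinant His6-SUMO-tagged Rep nickase domain (300 nM DNA, 50 mM HEPES pH 8.0, 50 mM NaCl, 1 mM MnCl2, 1 h, 37 °C, three replicates). Uncut DNA was amplified and sequenced.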

[2] = test system: T2, Rep nickase domain of banana bunchy top virus
T2 sequence (Rep 1-94, printed without the tag): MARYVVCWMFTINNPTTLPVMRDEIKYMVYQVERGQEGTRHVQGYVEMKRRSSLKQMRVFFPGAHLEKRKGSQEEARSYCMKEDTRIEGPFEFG
Method: as §1

[3] = test system: T3, Rep nickase domain of cabbage leaf curl virus
T3 sequence (Rep 1-116, printed without the tag): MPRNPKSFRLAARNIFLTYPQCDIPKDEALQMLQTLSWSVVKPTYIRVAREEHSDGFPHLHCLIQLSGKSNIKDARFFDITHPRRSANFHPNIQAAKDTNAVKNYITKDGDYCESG
Method: as §1

[4] = test system: T4, Rep nickase domain of chickpea chlorotic dwarf virus
T4 sequence (Rep 1-124, printed without the tag): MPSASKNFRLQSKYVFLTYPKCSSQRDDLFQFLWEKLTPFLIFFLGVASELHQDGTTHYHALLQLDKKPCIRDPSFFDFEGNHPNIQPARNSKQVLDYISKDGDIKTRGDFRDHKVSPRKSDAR
Method: as §1

[5] = test system: T5, Rep nickase domain of faba bean necrotic yellows virus
T5 sequence (Rep 1-98, printed without the tag): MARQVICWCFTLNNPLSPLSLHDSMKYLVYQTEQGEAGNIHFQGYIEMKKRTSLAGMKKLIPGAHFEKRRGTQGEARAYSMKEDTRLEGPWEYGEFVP
Method: as §1

[6] = test system: T6, Rep nickase domain of maize striate mosaic virus
T6 sequence (Rep 1-117, printed without the tag): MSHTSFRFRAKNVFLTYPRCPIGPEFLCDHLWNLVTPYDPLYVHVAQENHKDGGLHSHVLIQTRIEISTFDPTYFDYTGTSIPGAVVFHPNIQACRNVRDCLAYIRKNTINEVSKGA
Method: as §1

[7] = test system: T7, Rep nickase domain of porcine circovirus 2
T7 sequence (Rep 2-116, printed without the tag): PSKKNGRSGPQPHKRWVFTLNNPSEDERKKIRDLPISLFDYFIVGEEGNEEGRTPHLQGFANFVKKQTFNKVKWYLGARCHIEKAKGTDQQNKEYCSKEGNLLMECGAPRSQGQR
Method: as §1

[8] = test system: T8, Rep nickase domain of tomato golden mosaic virus
T8 sequence (Rep 1-124, printed without the tag): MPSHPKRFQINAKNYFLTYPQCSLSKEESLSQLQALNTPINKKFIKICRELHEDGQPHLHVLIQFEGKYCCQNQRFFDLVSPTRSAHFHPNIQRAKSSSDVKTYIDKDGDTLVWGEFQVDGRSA
Method: as §1

[9] = test system: T9, Rep nickase domain of tomato yellow leaf curl virus
T9 sequence (Rep 1-136, printed without the tag): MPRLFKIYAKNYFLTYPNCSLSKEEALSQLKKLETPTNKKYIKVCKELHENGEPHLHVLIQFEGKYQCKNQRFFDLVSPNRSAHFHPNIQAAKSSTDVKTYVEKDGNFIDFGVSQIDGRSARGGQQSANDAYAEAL
Method: as §1

[10] = test system: T10, Rep nickase domain of wheat dwarf virus
T10 sequence (Rep 1-137, printed without the tag): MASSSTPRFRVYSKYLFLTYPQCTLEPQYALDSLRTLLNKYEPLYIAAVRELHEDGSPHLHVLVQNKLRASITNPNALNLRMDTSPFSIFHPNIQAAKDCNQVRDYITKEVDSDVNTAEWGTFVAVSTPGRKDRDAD
Method: as §1

CTAGAAG
uncleaved DNA left (log2) [1]: 0.00165 | uncleaved DNA left (log2) [2]: 0.0806 | uncleaved DNA left (log2) [3]: -0.712 | uncleaved DNA left (log2) [4]: -0.376 | uncleaved DNA left (log2) [5]: 0.169 | uncleaved DNA left (log2) [6]: -0.95 | uncleaved DNA left (log2) [7]: 0.362 | uncleaved DNA left (log2) [8]: 0.204 | uncleaved DNA left (log2) [9]: 0.194 | uncleaved DNA left (log2) [10]: -0.136

AGCGGGC
uncleaved DNA left (log2) [1]: -0.0124 | uncleaved DNA left (log2) [2]: 0.144 | uncleaved DNA left (log2) [3]: 0.0405 | uncleaved DNA left (log2) [4]: 0.342 | uncleaved DNA left (log2) [5]: -0.0949 | uncleaved DNA left (log2) [6]: 0.0886 | uncleaved DNA left (log2) [7]: 0.128 | uncleaved DNA left (log2) [8]: 0.0766 | uncleaved DNA left (log2) [9]: 0.0267 | uncleaved DNA left (log2) [10]: 0.0375

ATTCGAC
uncleaved DNA left (log2) [1]: 0.0126 | uncleaved DNA left (log2) [2]: -0.113 | uncleaved DNA left (log2) [3]: -0.15 | uncleaved DNA left (log2) [4]: -0.147 | uncleaved DNA left (log2) [5]: 0.00378 | uncleaved DNA left (log2) [6]: -0.833 | uncleaved DNA left (log2) [7]: -0.0229 | uncleaved DNA left (log2) [8]: -0.0989 | uncleaved DNA left (log2) [9]: -0.176 | uncleaved DNA left (log2) [10]: -0.153

GGAAGTT
uncleaved DNA left (log2) [1]: -0.0251 | uncleaved DNA left (log2) [2]: 0.0391 | uncleaved DNA left (log2) [3]: 0.679 | uncleaved DNA left (log2) [4]: 1.46 | uncleaved DNA left (log2) [5]: -0.0848 | uncleaved DNA left (log2) [6]: 1.99 | uncleaved DNA left (log2) [7]: 0.135 | uncleaved DNA left (log2) [8]: -0.0308 | uncleaved DNA left (log2) [9]: 0.00555 | uncleaved DNA left (log2) [10]: 0.107

GTTCCGA
uncleaved DNA left (log2) [1]: -0.0517 | uncleaved DNA left (log2) [2]: -0.097 | uncleaved DNA left (log2) [3]: 0.239 | uncleaved DNA left (log2) [4]: 0.933 | uncleaved DNA left (log2) [5]: -0.105 | uncleaved DNA left (log2) [6]: 1.53 | uncleaved DNA left (log2) [7]: 0.00889 | uncleaved DNA left (log2) [8]: -0.0539 | uncleaved DNA left (log2) [9]: -0.0537 | uncleaved DNA left (log2) [10]: -0.0568

ACCAAGC
uncleaved DNA left (log2) [1]: -0.0416 | uncleaved DNA left (log2) [2]: -0.0211 | uncleaved DNA left (log2) [3]: -0.256 | uncleaved DNA left (log2) [4]: 0.0642 | uncleaved DNA left (log2) [5]: -0.0116 | uncleaved DNA left (log2) [6]: -0.903 | uncleaved DNA left (log2) [7]: 0.102 | uncleaved DNA left (log2) [8]: -0.0144 | uncleaved DNA left (log2) [9]: -0.0767 | uncleaved DNA left (log2) [10]: -0.119

TATCAAT
uncleaved DNA left (log2) [1]: 0.203 | uncleaved DNA left (log2) [2]: 0.127 | uncleaved DNA left (log2) [3]: 0.55 | uncleaved DNA left (log2) [4]: 0.282 | uncleaved DNA left (log2) [5]: 0.125 | uncleaved DNA left (log2) [6]: 1.09 | uncleaved DNA left (log2) [7]: -0.522 | uncleaved DNA left (log2) [8]: 0.0707 | uncleaved DNA left (log2) [9]: 0.243 | uncleaved DNA left (log2) [10]: 0.355

AGTTTTG
uncleaved DNA left (log2) [1]: 0.213 | uncleaved DNA left (log2) [2]: 0.00857 | uncleaved DNA left (log2) [3]: -0.0583 | uncleaved DNA left (log2) [4]: -0.0737 | uncleaved DNA left (log2) [5]: 0.156 | uncleaved DNA left (log2) [6]: -0.551 | uncleaved DNA left (log2) [7]: 0.189 | uncleaved DNA left (log2) [8]: 0.0293 | uncleaved DNA left (log2) [9]: -0.0284 | uncleaved DNA left (log2) [10]: 0.105

TGAATCT
uncleaved DNA left (log2) [1]: 0.00913 | uncleaved DNA left (log2) [2]: 0.00363 | uncleaved DNA left (log2) [3]: 0.201 | uncleaved DNA left (log2) [4]: -1.86 | uncleaved DNA left (log2) [5]: -0.0496 | uncleaved DNA left (log2) [6]: -0.293 | uncleaved DNA left (log2) [7]: -0.182 | uncleaved DNA left (log2) [8]: -0.0537 | uncleaved DNA left (log2) [9]: 0.0627 | uncleaved DNA left (log2) [10]: 0.0524

TGTGTGA
uncleaved DNA left (log2) [1]: 0.111 | uncleaved DNA left (log2) [2]: 0.078 | uncleaved DNA left (log2) [3]: 0.0737 | uncleaved DNA left (log2) [4]: 0.125 | uncleaved DNA left (log2) [5]: 0.0784 | uncleaved DNA left (log2) [6]: -0.191 | uncleaved DNA left (log2) [7]: 0.123 | uncleaved DNA left (log2) [8]: -0.00632 | uncleaved DNA left (log2) [9]: 0.097 | uncleaved DNA left (log2) [10]: 0.0808

ACAGGGC
uncleaved DNA left (log2) [1]: -0.103 | uncleaved DNA left (log2) [2]: -0.088 | uncleaved DNA left (log2) [3]: -0.435 | uncleaved DNA left (log2) [4]: -0.254 | uncleaved DNA left (log2) [5]: -0.131 | uncleaved DNA left (log2) [6]: -0.844 | uncleaved DNA left (log2) [7]: -0.0533 | uncleaved DNA left (log2) [8]: -0.0178 | uncleaved DNA left (log2) [9]: -0.0948 | uncleaved DNA left (log2) [10]: -0.16

GACATAG
uncleaved DNA left (log2) [1]: -0.0245 | uncleaved DNA left (log2) [2]: -0.031 | uncleaved DNA left (log2) [3]: -0.601 | uncleaved DNA left (log2) [4]: -0.324 | uncleaved DNA left (log2) [5]: -0.0329 | uncleaved DNA left (log2) [6]: -1.03 | uncleaved DNA left (log2) [7]: 0.106 | uncleaved DNA left (log2) [8]: -0.0515 | uncleaved DNA left (log2) [9]: 0.0254 | uncleaved DNA left (log2) [10]: -0.0697

CTTTCGG
uncleaved DNA left (log2) [1]: -0.0649 | uncleaved DNA left (log2) [2]: -0.113 | uncleaved DNA left (log2) [3]: 0.396 | uncleaved DNA left (log2) [4]: 1.3 | uncleaved DNA left (log2) [5]: -0.121 | uncleaved DNA left (log2) [6]: 1.47 | uncleaved DNA left (log2) [7]: 0.0841 | uncleaved DNA left (log2) [8]: 0.0138 | uncleaved DNA left (log2) [9]: -0.0991 | uncleaved DNA left (log2) [10]: 0.0534

ACGCCTT
uncleaved DNA left (log2) [1]: -0.177 | uncleaved DNA left (log2) [2]: -0.058 | uncleaved DNA left (log2) [3]: -0.252 | uncleaved DNA left (log2) [4]: -1.66 | uncleaved DNA left (log2) [5]: -0.203 | uncleaved DNA left (log2) [6]: -0.308 | uncleaved DNA left (log2) [7]: -0.151 | uncleaved DNA left (log2) [8]: -0.0447 | uncleaved DNA left (log2) [9]: -0.153 | uncleaved DNA left (log2) [10]: -0.107

ATAGGCC
uncleaved DNA left (log2) [1]: 0.0516 | uncleaved DNA left (log2) [2]: -0.067 | uncleaved DNA left (log2) [3]: -0.0041 | uncleaved DNA left (log2) [4]: 0.266 | uncleaved DNA left (log2) [5]: -0.0658 | uncleaved DNA left (log2) [6]: -0.355 | uncleaved DNA left (log2) [7]: -0.0847 | uncleaved DNA left (log2) [8]: 0.022 | uncleaved DNA left (log2) [9]: 0.0217 | uncleaved DNA left (log2) [10]: 0.0442
